# Assay results reported in the supplement of paper PMC8728848.
# Some of the results follow.
# What was measured:
# Assay in all cases: glycan array binding signal (z-score within array); higher = stronger binding
# Settings in all cases: glycan notation: IUPAC condensed, linker removed; mutation: D22R
# [1] = biological target: GlcNAc(a1-6)Gal(b1-4)GlcNAc
# Method in brief: (§1)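 Arrays were curated from the Consortium for Functional Glycomics database, 3228 in total, and kept only where the protein sequence was available. Binding is expressed as a within-array Z-score. This score was averaged across arrays of the same protein sequence at different concentrations or buffers and across linkers, and negative values can be read as non-binding.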
# [2] = biological target: GlcNAc(b1-2)Gal(b1-3)GalNAc
# Method in brief: as §1
# [3] = biological target: GlcNAc(b1-2)Man(a1-3)[GlcNAc(b1-2)Man(a1-6)]Man(b1-4)GlcNAc(b1-4)GlcNAc
# Method in brief: as §1
# [4] = biological target: GlcNAc(b1-2)Man(a1-3)[GlcNAc(b1-2)Man(a1-6)]Man(b1-4)GlcNAc(b1-4)[Fuc(a1-6)]GlcNAc
# Method in brief: as §1
# [5] = biological target: GlcNAc(b1-2)Man(a1-3)[GlcNAc(b1-4)][GlcNAc(b1-2)Man(a1-6)]Man(b1-4)GlcNAc(b1-4)GlcNAc
# Method in brief: as §1
# [6] = biological target: GlcNAc(b1-2)Man(a1-3)[GlcNAc(b1-4)][GlcNAc(b1-2)Man(a1-6)]Man(b1-4)GlcNAc(b1-4)[Fuc(a1-6)]GlcNAc
# Method in brief: as §1
# [7] = biological target: GlcNAc(b1-2)[GlcNAc(b1-4)]Man(a1-3)[GlcNAc(b1-2)Man(a1-6)]Man(b1-4)GlcNAc(b1-4)GlcNAc
# Method in brief: as §1
# [8] = biological target: GlcNAc(b1-2)[GlcNAc(b1-4)]Man(a1-3)[GlcNAc(b1-4)][GlcNAc(b1-2)Man(a1-6)]Man(b1-4)GlcNAc(b1-4)GlcNAc
# Method in brief: as §1
# [9] = biological target: GlcNAc(b1-2)[GlcNAc(b1-4)]Man(a1-3)[GlcNAc(b1-4)][GlcNAc(b1-2)[GlcNAc(b1-6)]Man(a1-6)]Man(b1-4)GlcNAc(b1-4)GlcNAc
# Method in brief: as §1
# [10] = biological target: GlcNAc(b1-2)[GlcNAc(b1-4)]Man(a1-3)[GlcNAc(b1-4)][GlcNAc(b1-2)[GlcNAc(b1-6)]Man(a1-6)]Man(b1-4)GlcNAc(b1-4)[Fuc(a1-6)]GlcNAc
# Method in brief: as §1
# [11] = biological target: GlcNAc(b1-2)[GlcNAc(b1-6)]Man(a1-6)[GlcNAc(b1-2)Man(a1-3)]Man(b1-4)GlcNAc(b1-4)GlcNAc
# Method in brief: as §1
# [12] = biological target: GlcNAc(b1-2)[GlcNAc(b1-6)]Man(a1-6)[GlcNAc(b1-2)Man(a1-3)]Man(b1-4)GlcNAc(b1-4)[Fuc(a1-6)]GlcNAc
# Method in brief: as §1
# [13] = biological target: GlcNAc(b1-2)[GlcNAc(b1-6)]Man(a1-6)[GlcNAc(b1-4)][GlcNAc(b1-2)Man(a1-3)]Man(b1-4)GlcNAc(b1-4)GlcNAc
# Method in brief: as §1
# GlcNAc(b1-3)Fuc = biological target: GlcNAc(b1-3)Fuc
# Method in brief: as §1
# GlcNAc(b1-3)Gal = biological target: GlcNAc(b1-3)Gal
# Method in brief: as §1
# [14] = biological target: GlcNAc(b1-3)Gal(b1-3)GalNAc
# Method in brief: as §1
# GlcNAc(b1-3)Gal(b1-4)Glc = biological target: GlcNAc(b1-3)Gal(b1-4)Glc
# Method in brief: as §1
# [15] = biological target: GlcNAc(b1-3)Gal(b1-4)GlcNAc
# Method in brief: as §1
# [16] = biological target: GlcNAc(b1-3)Gal(b1-4)GlcNAc(b1-2)Man(a1-3)[GlcNAc(b1-3)Gal(b1-4)GlcNAc(b1-2)Man(a1-6)]Man(b1-4)GlcNAc(b1-4)GlcNAc
# Method in brief: as §1
# [17] = biological target: GlcNAc(b1-3)Gal(b1-4)GlcNAc(b1-2)Man(a1-3)[GlcNAc(b1-3)Gal(b1-4)GlcNAc(b1-2)Man(a1-6)]Man(b1-4)GlcNAc(b1-4)[Fuc(a1-6)]GlcNAc
# Method in brief: as §1
# [18] = biological target: GlcNAc(b1-3)Gal(b1-4)GlcNAc(b1-2)[GlcNAc(b1-3)Gal(b1-4)GlcNAc(b1-6)]Man(a1-6)[GlcNAc(b1-3)Gal(b1-4)GlcNAc(b1-2)Man(a1-3)]Man(b1-4)GlcNAc(b1-4)GlcNAc
# Method in brief: as §1
# [19] = biological target: GlcNAc(b1-3)Gal(b1-4)GlcNAc(b1-3)Gal(b1-4)GlcNAc
# Method in brief: as §1
# [20] = biological target: GlcNAc(b1-3)Gal(b1-4)GlcNAc(b1-3)Gal(b1-4)GlcNAc(b1-2)Man(a1-3)[GlcNAc(b1-3)Gal(b1-4)GlcNAc(b1-3)Gal(b1-4)GlcNAc(b1-2)Man(a1-6)]Man(b1-4)GlcNAc(b1-4)GlcNAc
# Method in brief: as §1
# [21] = biological target: GlcNAc(b1-3)Gal(b1-4)GlcNAc(b1-3)Gal(b1-4)GlcNAc(b1-2)Man(a1-3)[GlcNAc(b1-3)Gal(b1-4)GlcNAc(b1-3)Gal(b1-4)GlcNAc(b1-2)Man(a1-6)]Man(b1-4)GlcNAc(b1-4)[Fuc(a1-6)]GlcNAc
# Method in brief: as §1
# [22] = biological target: GlcNAc(b1-3)Gal(b1-4)GlcNAc(b1-3)Gal(b1-4)GlcNAc(b1-2)[GlcNAc(b1-3)Gal(b1-4)GlcNAc(b1-3)Gal(b1-4)GlcNAc(b1-6)]Man(a1-6)[GlcNAc(b1-3)Gal(b1-4)GlcNAc(b1-3)Gal(b1-4)GlcNAc(b1-2)Man(a1-3)]Man(b1-4)GlcNAc(b1-4)[Fuc(a1-6)]GlcNAc
# Method in brief: as §1
# [23] = biological target: GlcNAc(b1-3)Gal(b1-4)GlcNAc(b1-3)Gal(b1-4)GlcNAc(b1-3)Gal(b1-4)GlcNAc(b1-2)Man(a1-3)[GlcNAc(b1-3)Gal(b1-4)GlcNAc(b1-3)Gal(b1-4)GlcNAc(b1-3)Gal(b1-4)GlcNAc(b1-2)Man(a1-6)]Man(b1-4)GlcNAc(b1-4)GlcNAc
# Method in brief: as §1
# [24] = biological target: GlcNAc(b1-3)Gal(b1-4)GlcNAc(b1-3)Gal(b1-4)GlcNAc(b1-3)Gal(b1-4)GlcNAc(b1-2)Man(a1-3)[GlcNAc(b1-3)Gal(b1-4)GlcNAc(b1-3)Gal(b1-4)GlcNAc(b1-3)Gal(b1-4)GlcNAc(b1-2)Man(a1-6)]Man(b1-4)GlcNAc(b1-4)[Fuc(a1-6)]GlcNAc
# Method in brief: as §1
# [25] = biological target: GlcNAc(b1-3)Gal(b1-4)GlcNAc(b1-3)Gal(b1-4)GlcNAc(b1-3)Gal(b1-4)GlcNAc(b1-2)[GlcNAc(b1-3)Gal(b1-4)GlcNAc(b1-3)Gal(b1-4)GlcNAc(b1-3)Gal(b1-4)GlcNAc(b1-6)]Man(a1-6)[GlcNAc(b1-3)Gal(b1-4)GlcNAc(b1-3)Gal(b1-4)GlcNAc(b1-3)Gal(b1-4)GlcNAc(b1-2)Man(a1-3)]Man(b1-4)GlcNAc(b1-4)[Fuc(a1-6)]GlcNAc
# Method in brief: as §1
# [26] = biological target: GlcNAc(b1-3)Gal(b1-4)GlcNAc(b1-3)Gal(b1-4)GlcNAc(b1-3)Gal(b1-4)GlcNAc(b1-3)Gal(b1-4)GlcNAc(b1-2)Man(a1-3)[GlcNAc(b1-3)Gal(b1-4)GlcNAc(b1-3)Gal(b1-4)GlcNAc(b1-3)Gal(b1-4)GlcNAc(b1-3)Gal(b1-4)GlcNAc(b1-2)Man(a1-6)]Man(b1-4)GlcNAc(b1-4)GlcNAc
# Method in brief: as §1
# [27] = biological target: GlcNAc(b1-3)Gal(b1-4)GlcNAc(b1-3)Gal(b1-4)GlcNAc(b1-3)Gal(b1-4)GlcNAc(b1-3)Gal(b1-4)GlcNAc(b1-2)Man(a1-3)[GlcNAc(b1-3)Gal(b1-4)GlcNAc(b1-3)Gal(b1-4)GlcNAc(b1-3)Gal(b1-4)GlcNAc(b1-3)Gal(b1-4)GlcNAc(b1-2)Man(a1-6)]Man(b1-4)GlcNAc(b1-4)[Fuc(a1-6)]GlcNAc
# Method in brief: as §1
# [28] = biological target: GlcNAc(b1-3)Gal(b1-4)GlcNAc(b1-3)Gal(b1-4)GlcNAc(b1-3)Gal(b1-4)GlcNAc(b1-3)Gal(b1-4)GlcNAc(b1-2)[GlcNAc(b1-3)Gal(b1-4)GlcNAc(b1-3)Gal(b1-4)GlcNAc(b1-3)Gal(b1-4)GlcNAc(b1-3)Gal(b1-4)GlcNAc(b1-6)]Man(a1-6)[GlcNAc(b1-3)Gal(b1-4)GlcNAc(b1-3)Gal(b1-4)GlcNAc(b1-3)Gal(b1-4)GlcNAc(b1-3)Gal(b1-4)GlcNAc(b1-2)Man(a1-3)]Man(b1-4)GlcNAc(b1-4)[Fuc(a1-6)]GlcNAc
# Method in brief: as §1
# [29] = biological target: GlcNAc(b1-3)Gal(b1-4)GlcNAc(b1-3)Gal(b1-4)GlcNAc(b1-3)GalNAc
# Method in brief: as §1
# [30] = biological target: GlcNAc(b1-3)Gal(b1-4)GlcNAc(b1-3)GalNAc
# Method in brief: as §1
# [31] = biological target: GlcNAc(b1-3)Gal(b1-4)GlcNAc(b1-3)[GlcNAc(b1-3)Gal(b1-4)GlcNAc(b1-3)]GalNAc
# Method in brief: as §1
# [32] = biological target: GlcNAc(b1-3)Gal(b1-4)GlcNAc(b1-6)[Gal(b1-3)]GalNAc
# Method in brief: as §1
# [33] = biological target: GlcNAc(b1-3)Gal(b1-4)GlcNAc(b1-6)[GlcNAc(b1-3)Gal(b1-3)]GalNAc
# Method in brief: as §1
# [34] = biological target: GlcNAc(b1-3)Gal(b1-4)GlcNAc(b1-6)[GlcNAc(b1-3)]Gal(b1-4)GlcNAc
# Method in brief: as §1
# GlcNAc(b1-3)GalNAc = biological target: GlcNAc(b1-3)GalNAc
# Method in brief: as §1
# GlcNAc(b1-3)Man = biological target: GlcNAc(b1-3)Man
# Method in brief: as §1
# [35] = biological target: GlcNAc(b1-3)[GlcNAc(b1-4)][GlcNAc(b1-6)]GlcNAc
# Method in brief: as §1
# [36] = biological target: GlcNAc(b1-3)[GlcNAc(b1-6)]Gal(b1-4)GlcNAc
# Method in brief: as §1
# [37] = biological target: GlcNAc(b1-3)[GlcNAc(b1-6)]GalNAc
# Method in brief: as §1
# [38] = biological target: GlcNAc(b1-4)Gal(b1-4)GlcNAc
# Method in brief: as §1
# GlcNAc(b1-4)GlcNAc = biological target: GlcNAc(b1-4)GlcNAc
# Method in brief: as §1
# [39] = biological target: GlcNAc(b1-4)GlcNAc(b1-4)GlcNAc
# Method in brief: as §1
binder,measurement,setting,value
MpL2 (Macrolepiota procera) (protein) MSTQVSSGQTYKITNVKAGTVIRLSGEDNKSIIGYPYHSGKNQQWTFNWTGKAWTLRSASSGSYLGIEGTPADGTRLVAVNDPFEWHIWRDEANENAFRIFVPFTNYNLDLSGYGDTTPGTPVQLWWTWEGLHQTWTIDRP,glycan array binding signal (z-score),[1],0.511
same,glycan array binding signal (z-score),[2],-0.318
same,glycan array binding signal (z-score),[3],-0.206
same,glycan array binding signal (z-score),[4],1.36
same,glycan array binding signal (z-score),[5],-0.204
same,glycan array binding signal (z-score),[6],-0.375
same,glycan array binding signal (z-score),[7],-0.1
same,glycan array binding signal (z-score),[8],-0.261
same,glycan array binding signal (z-score),[9],-0.207
same,glycan array binding signal (z-score),[10],0.14
same,glycan array binding signal (z-score),[11],-0.306
same,glycan array binding signal (z-score),[12],0.587
same,glycan array binding signal (z-score),[13],-0.215
same,glycan array binding signal (z-score),GlcNAc(b1-3)Fuc,0.069
same,glycan array binding signal (z-score),GlcNAc(b1-3)Gal,-0.201
same,glycan array binding signal (z-score),[14],-0.16
same,glycan array binding signal (z-score),GlcNAc(b1-3)Gal(b1-4)Glc,0.049
same,glycan array binding signal (z-score),[15],-0.122
same,glycan array binding signal (z-score),[16],0.092
same,glycan array binding signal (z-score),[17],0.441
same,glycan array binding signal (z-score),[18],1.11
same,glycan array binding signal (z-score),[19],-0.221
same,glycan array binding signal (z-score),[20],1.25
same,glycan array binding signal (z-score),[21],0.874
same,glycan array binding signal (z-score),[22],1.56
same,glycan array binding signal (z-score),[23],0.573
same,glycan array binding signal (z-score),[24],0.702
same,glycan array binding signal (z-score),[25],1.51
same,glycan array binding signal (z-score),[26],0.496
same,glycan array binding signal (z-score),[27],-0.377
same,glycan array binding signal (z-score),[28],0.58
same,glycan array binding signal (z-score),[29],0.292
same,glycan array binding signal (z-score),[30],-0.102
same,glycan array binding signal (z-score),[31],0.131
same,glycan array binding signal (z-score),[32],-0.42
same,glycan array binding signal (z-score),[33],-0.021
same,glycan array binding signal (z-score),[34],-0.264
same,glycan array binding signal (z-score),GlcNAc(b1-3)GalNAc,-0.361
same,glycan array binding signal (z-score),GlcNAc(b1-3)Man,-0.162
same,glycan array binding signal (z-score),[35],-0.607
same,glycan array binding signal (z-score),[36],-0.071
same,glycan array binding signal (z-score),[37],-0.416
same,glycan array binding signal (z-score),[38],0.058
same,glycan array binding signal (z-score),GlcNAc(b1-4)GlcNAc,-0.167
same,glycan array binding signal (z-score),[39],-0.47
